Results as given in the supplement of paper PMC10185492.
Some of the results follow. Read counts after selection give these values, which scatter widely.

Tested on: SARS-CoV-2 3CLpro (nsp5)
Assay: substrate phage enrichment score (protease-eluted vs HEPES control, +1 offset) (ratio); higher = better cleaved substrate
Details: selection round: 4; protease elution time: 15 min
Procedure: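 Random heptapeptide substrate phage display (M13 pIII fusion, heptapeptide between an N-terminal biotinylated AviTag GLNDIFEAQKIEWHE and pIII; phages immobilised on streptavidin) eluted by cleavage with 50 nM protease in 20 mM HEPES at 37 °C. Selected phages were NGS sequenced, and the enrichment score is (reads in protease sample + 1)/(reads in HEPES blank-selection control + 1).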

Substance	substrate phage enrichment score
RNRNNKN	8
TRGCLQG	4
AVNLCGG	> 33
TAQTNRL	0.85
VNEWRST	> 25
TNCVNKG	0.667
TASGARG	> 130
NQLFNAG	> 52
HEQAPNK	> 31
DHAAAHH	0.222
RKYCVPD	0.167
LTIEKQQ	0.917
WGSQDTQ	> 26
CSGNKPP	2
QAGALHD	0.46
SRYQRSG	1.38
PTREAAH	18.8
CSYRKPS	> 28
HHHHGAA	0.785
SLSCGGL	2.94
LDHSGVA	> 34
ESRARLQ	> 88
KHGNLSE	> 45
LRDAVTI	1.54
SMQCIGP	> 78

Substance	substrate phage enrichment score
NRGAYHS	5.21
KRQPPGA	> 142
ATKGDRL	1.2
TTTKRCS	13
RLMSDCR	4
KEEYQTK	0.474
NPSYENR	5
SSQDNLN	1.67
NHFGELK	0.278
PTRWSAR	2.88
SEAKASA	1.13
TKDESLF	1.85
YMQSPSQ	3.17
SSQPCRQ	> 687
ACSVGMQ	> 38
HALLQSG	> 48
PKECPTS	7.67
SPTPVLQ	61.5
VEPPLNF	2.07
ATSAHHH	1.5
RVADTES	11
PMAPSTH	0.789
HKTLLSA	> 26
GDDKFRI	6.73
STNGGYS	0.407

Substance	substrate phage enrichment score
VKCSLCD	> 57
VCFQGGS	1.69
NECVNYR	0.375
EKPSITS	> 22
SYLRGCA	> 22
NTWPSLQ	4.2
SQNEHLQ	1.27
DLLRGQC	> 21
VETPDSL	0.704
PCSEAAH	8.5
EVKATLH	16.3
TEFTLND	0.588
SEGVGIP	> 31
RDAAAHH	1
CTKWSAG	> 22
SAAAPNH	0.929
CKRTMLQ	> 34
NGLSGSN	4.43
NTPSTKD	42.7
TERADTL	> 26
PRNESCR	> 22
CPVKQRD	2
MNQSLLQ	> 30
HFPRCTA	4.88
WPAAQLQ	> 76

Substance	substrate phage enrichment score
KNERYRS	0.5
QVRETPI	3
DQLCEPR	> 37
SRLQYGS	> 29
QAPTRPN	14
EKRTRLQ	> 22
ARTGTPP	2.95
MRPAVKS	8.83
HTYRECL	5.25
PNHHKEC	0.8
CAELKYQ	> 41
VGQSYSP	> 41
MSDPRLK	> 22
PRAVLQC	> 141
TEPAHLR	> 21
NPPMQGW	> 28
QGAAHHH	2.43
AKYQPLR	> 53
LSHSLGK	> 21
YLTESDG	> 35
SAAVHHH	1.27
TESSCNL	2.14
EYFQGGS	0.7
SDSPIRY	2.44
PTAYGLQ	2

Substance	substrate phage enrichment score
EARPLQG	> 21
KKSASLN	> 159
DSKLYFQ	12.5
RSKPHSP	1
TTSTGLR	> 35
FTTNSAH	1.69
NKEDNQG	> 21
NATSVLN	2
QKGYRPG	> 33
LTGVNGA	0.293
QGVYLQG	> 26
NPPQWQY	> 21
WPEHVPN	> 29
NQCSHMT	11.5
DASTRLQ	76.5
ENDKRTT	> 26
QQGSFTC	2.67
SGAPGCR	15.5
YADVNAW	> 28
RTRSCLQ	> 230
CPLRPVQ	2.57
LQSHDTR	2.36
SWEEKCG	1.41
ACPTGVH	> 26
PSSHQKS	> 67

Substance	substrate phage enrichment score
AHTETGD	> 51
SCTPLTR	1.3
NESNVKI	1.65
LREVQAK	1.21
IKSPNCE	0.0571
HRERLSS	0.529
TDAAHHH	0.432
LRVETHD	4.46
LNRTWEP	> 22
PQVCEPN	1.4
VKTLYGK	> 26
SNRSVLQ	13.2
ACRNRPP	> 22
YERLTGT	> 22
SYEGETK	2
ALNSSGR	> 23
GPVNLQS	> 83
ASALGCS	8.62
AKNSLWQ	> 43
CTCPETR	0.857
SRKGGDH	17
PSKQCPR	> 43
YFGSVNQ	> 27
NGLPTCP	0.7
PSSTTLQ	> 648

Substance	substrate phage enrichment score
SPVTLQS	> 44
TTYEVPG	28.5
CWDGQGS	4.4
GGNPQCP	3.62
SPRAICQ	> 597
ASSGYPT	3.46
AWGDTSR	1.44
REPVLCQ	> 28
FMPLCQA	13
ERSCSTH	> 21
PVSHAPQ	> 50
SAAARHH	1
RVPVPIG	> 40
RDNNVKY	0.514
SATAHHH	0.438
NEIRSTR	> 22
ISSQPHN	> 21
LESSGTQ	2.62
AHTEWRD	1.36
RCGLNQM	> 36
LLIRSCR	178
RVELLEP	2.71
ECCLQGG	> 33
ASAPKLP	3.8
LYFQCGS	1.42

Substance	substrate phage enrichment score
HTPCRSS	0.647
AYLQGGS	1
PHKYDDN	0.867
VNLQTSH	> 25
PAAQDTR	6.5
RRSPNGW	5
ATGCSTM	> 28
ANMPSKR	> 45
AQSSNRD	3.4
ESDHQST	0.238
CAAAHQQ	1.21
HIYKLNS	0.714
VVGLGVV	8.67
AQLHNTQ	> 23
VTSEKHT	> 27
PRTLYFQ	> 24
PALQSST	> 414
DPAAHHH	0.48
GRPLFAT	3.14
AGRHCKG	29
REVLVTN	1.25
SNSCGSA	14.6
EKEHFSV	2.14
LRSAEPW	0.177
QSNQRPG	1.2

Substance	substrate phage enrichment score
HLCEGLF	1.07
TGLPPSV	2.71
TEINHIR	> 27
QRVPHLK	2.13
ASNKCVG	2.14
TAHHHHH	1.3
CRRFRRI	95
VESEVRP	2.67
ESTFPVR	2.67
NPSLNNC	> 28
AQPVTSS	> 34
NTTVRPT	5.6
LVHQLPD	2.08
AAQIHTR	> 35
ATWGKSP	> 25
LCIPNLQ	24.7
WHSTDKA	0.5
GNSWRVQ	0.0682
LSNYEDW	1.07
PKGTWPG	> 26
FYGPKTV	0.591
FNPQGTG	1.73
QKYVLPT	5.86
PSAAAHH	0.827
SGRVKMT	2.57

Substance	substrate phage enrichment score
ANNVCAE	0.0833
SLAAHHH	4.62
HNCGARQ	0.435
TEHHSTE	1.44
YGSDGAK	> 33
PNELQSY	> 26
SLEASFR	0.471
CLQGVEK	15
RDMNPKS	> 34
RVWKPHP	4.83
YMMFDAT	> 31
REPNFQG	3.88
ETQAPTS	0.706
FRDIQLR	> 34
SSRINMT	0.5
QKRTTLQ	64
VHRSGPT	> 41
SMRGEYP	> 44
HGRTPSD	0.0962
YECTSKK	6.8
CAEGVAK	0.158
LICWCHR	4.44
ATDLPSR	0.143
DPGRCGG	0.833
RSSSSED	0.0147

Substance	substrate phage enrichment score
VACLQAS	> 29
PKGDISR	1.69
KFGPRKQ	> 28
SKQTAGT	1.89
GTYQGPQ	0.0667
IGLTPSR	0.647
THTRGTS	> 34
NSHRTWF	0.111
HRTTPLQ	2.3
NAAAAHH	17
AGNKVHW	> 22
HTLVAKV	1.05
CAAAHNH	0.6
RADNDSE	> 28
RESRLQS	> 142
RHEATSD	2.65
LGPHIII	0.857
SRTPDEG	5
SRTGEYH	> 27
VLTGMGG	6.75
PAILQSG	> 33
SAAPQQQ	2.22
ICIYDER	2.15
KCIHVPK	> 32
KHQCTLI	> 29

Substance	substrate phage enrichment score
ATGAAAH	> 22
APVIHYD	7.33
YEDWIRG	0.765
STYNNMQ	5.62
YTEDKLS	0.875
TWAAHHH	5.56
NRPEHCR	> 21
PIGHMTR	14
PGQNEWP	4.8
YQKHGSR	> 49
SPTDDLW	> 42
QEPVSLQ	> 31
FNHDLNR	0.0408
SHEETHK	0.95
AELQCNV	> 23
PSSRPTS	4.47
QHGQNKA	0.769
AIPEPER	> 85
KHYAKPV	4.36
TGIGATS	11
STSKTLP	3.14
ARSSIPL	1.05
VSFPELS	2.69
ADSRKRP	> 52
RGVLQNH	1.53

Substance	substrate phage enrichment score
RSYPKNP	> 75
PPKCPHR	> 35
SPGCRLM	19.5
ACDQRPD	> 22
WSTNPRA	0.353
QPHEHPH	0.25
RPVVPEK	2.36
GGNTNLM	> 21
WNQGPLR	10.5
TTTAHHH	2.6
TQNITLQ	> 40
RFVEWRP	1.82
THWTGCW	1.8
TRIPQPC	0.667
TAEGLRM	> 28
PHACPSL	3.5
PGKMCKG	7.38
TESVRRP	7
RCVLING	> 31
PPAAHHH	1.01
DLTDTPV	3
PASAHHH	31.2
RNFRSER	7.17
ECWNVGS	1.5
IRPSDAE	6.55

Substance	substrate phage enrichment score
TQGVNLC	> 31
LYFHGGS	3.22
MRCSADA	0.643
DVRNLLS	> 23
SQANEMQ	> 27
AMKTGAF	3.5
THFSDRQ	0.733
SPVREQD	7.33
HPPGMIH	> 35
WQRVPSR	2.8
PPCVILQ	> 252
NEAGILM	> 105
RHMRGSR	1.15
SQVILQA	63.5
ASVTSLQ	2.83
GGSPSRQ	1.45
VHLQARC	> 56
VISGVFV	> 23
KRGTNLC	> 80
KSERDAH	4.22
SSDCVIP	> 49
TRDGRAT	1.5
RPAKGCV	> 22
MGLAVPQ	> 24
QVIKEHH	1.7

Substance	substrate phage enrichment score
GNLDNCR	1.93
KQGGSAA	0.579
DIHNEVI	1.54
SERIRTG	19
FEAAHHH	0.458
NALPFTQ	> 27
PNGYGPN	2.55
AQWASET	13
APLTGRC	> 35
SAYGSAA	17.5
PYDNSNW	> 34
HSAQPGP	0.233
TLQCTQV	> 35
AVEARNM	7
PSRQPRA	> 28
ENQLGPS	7
TRLQSDW	> 72
